# Laboratory results published in the supplement of paper PMC12217912.
# The list shows a part of the results. The full chains were built here from the parent and the listed change. Values near 0.05 are background.
# B1: TEV protease; numbered along this chain (parent)
# chain: MGESLFKGPRDYNPISSSICHLTNESDGHTTSLYGIGFGPFIITNKHLFRRNNGTLVVQSLHGVFKVKDTTTLQQHLVDGRDMIIIRMPKDFPPFPQKLKFREPQREERICLVTTNFQTKSMSSMVSDTSCTFPSGDGIFWKHWIQTKDGQCGSPLVSTRDGFIVGIHSASNFTNTNNYFTSVPKNFMELLTNQEAQQWVSGWRLNADSVLWGGHKVFMVKPEEPFQPVKEATQL
# Variants of: B1
# Assay: raw area under fraction-flipped curve 0-4 h after induction (AUC4h, not background-subtracted), DNA-recorder readout of cleavage of the substrate (dimensionless); higher = more cleavage of the substrate by the protease variant
# Details: temperature: 34 °C; time window: 0-4 h after rhamnose induction
# 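Note: Bxb1 expression induced with 0.2% (w/v) L-rhamnose at OD600 near 0.5, cultures sampled hourly, flipped fraction per protease–substrate barcode pair counted by paired-end Illumina sequencing.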
Variant,area with substrate ENLYEQS,area with substrate ENLYHQS,area with substrate ENLYNQS,area with substrate ENLYSQS,area with substrate ENLYWQS,area with substrate ENLYYQS,area with substrate ENLYIQS,area with substrate ENLYLQS,area with substrate ENLYPQS,area with substrate ENLYRQS
G153W,0.0655,0.0484,0.039,0.0665,0.0629,0.0645,,,,
T159A,0.0593,,,,,,0.116,0.0437,0.0556,0.0592
S171T,0.0544,0.102,,0.0564,0.101,,,,,
N172Y,0.0632,0.0648,,,0.0656,0.0684,0.0428,,,
T174V,0.0605,0.0477,0.0636,0.0932,0.0911,,0.0874,,0.0197,0.0695
F180A,0.112,,0.0529,,0.0674,,,0.0681,,
F180R,0.063,,,0.045,0.0524,,,,0.106,0.0536
S182L,0.0532,0.0505,0.0493,,0.0496,0.0507,,,0.031,0.0479
F187T,0.0591,0.0701,0.0622,,0.0657,,,0.0714,,0.0566
Q197P,0.0694,0.0912,,,0.0801,0.0892,,0.091,,
S201Y,0.0611,0.0654,,,0.0689,0.0623,,,0.0805,0.0624
G213N,0.0751,0.0648,0.0606,,,,,,,0.0564
G213Q,0.076,,,,,,,,0.0611,
V217R,0.0582,,,,,,0.0494,0.0492,,
F218Y,0.0711,0.0778,,,,0.0646,0.127,,0.0434,
M219H,0.0743,0.0666,0.0563,,0.104,,0.0672,,0.0527,0.0607
K221A,0.0538,,0.0592,,,,,,0.0719,0.0556
P228A,0.0466,0.0492,,,0.0776,,0.122,,,
V58T,,,0.0663,,,,,,0.0487,
V67Q,,0.0682,,,,,0.106,,0.0755,
R87K,,0.0662,,0.0911,0.105,,0.188,,,

# Same assay, conditions: temperature: 34 °C; time window: 0-4 h after rhamnose induction
Variant,area with substrate ENLYVQS,area with substrate ENLYMQS,area with substrate ENLYKQS,area with substrate ENLYQQS,area with substrate ENLYGQS
T159A,0.121,,,,
S171T,,0.0941,,,
N172Y,,0.0573,,,
T174V,0.0632,0.0694,0.0586,,
F180A,0.0883,0.069,,,
F180R,,,0.022,0.0561,
S182L,0.0646,0.0461,0.0527,,
F187T,,0.0774,0.0722,,0.0625
Q197P,0.105,,0.0513,0.0492,0.0591
S201Y,,,,0.0549,
G213N,,,,0.0661,
G213Q,,0.0493,,0.0677,
V217R,0.0649,,,,0.0464
F218Y,0.125,,,,
M219H,0.0717,0.0807,,,0.0624
K221A,,,,0.0794,0.0514
P228A,0.181,,0.0605,0.0221,
V58T,0.0634,,,,0.018
V67Q,,,0.0632,,0.0553
R87K,,,,,0.091
